Patent publication US4089965A, “Thiazolylphenylguanidines as antirhinovirus agents” (American Cyanamid Company, priority 1977, dated 1978)

System: Rhinovirus strain 1B
Assay: Protection of tissue from cytopathic effects (plaque inhibition, filter paper disc or agar overlay)
Set-up: key: +: Protects tissue from destruction by virus; .-+.: Partial protection
Details: 33°, 3 to 5 days
Excerpt: Confluent monolayers of a continuous cell-line such as HeLa, HEp-2, KB or L-132, grown in plastic tissue culture dishes, were infected with one of the rhinoviruses, for example, types 1B, 2, 5, 14 or 23 and other members of the picornavirus group, including the enteroviruses, for example, coxsackie A-11 and A-21.
Protection of the tissues to the cytopathic effects of the viruses were ascertained either by means of a plaque inhibition test in which the test compound was adsorbed onto a filter paper disc and placed on the agar used to overlay the infected cell monolayers, or by incorporation into the said agar overlay. The agar overlay medium used for this purpose was of the following formulation: […]
The virus infected cell monolayers plus test compound were incubated in a humidifier atmosphere of 5% carbon dioxide at 33° for 3 to 5 days. The ability of these compounds to protect tissues from destruction by the viruses was then evident after staining the residual uninfected cells with 0.5% crystal violet in 20% ethanol.

Row | SMILES | Protection of tissue from destruction by virus
1 | N=C(Nc1ccccc1)Nc1nc(-c2ccccc2)cs1 [1-(4-phenyl-2-thiazolyl)-3-phenylguanidine] | .-+.
2 | COC(=O)c1ccc(NC(=N)Nc2nc(-c3ccccc3)cs2)cc1 [1-(4-phenyl-thiazolyl)-3-(4-carbomethoxyphenyl)-guanidine] | .-+.
